Assay results: PubChem BioAssay AID463173 (ICCB-Longwood Screening Facility, Harvard Medical School, 2010)
About 1,700 (3.3%) of roughly 52,000 compounds were called active. Cut-off read from the data, not from the text of the source: active = survival mostly below about 52% (no sharp cut-off); inactive = mostly above about 56%. Some of the results follow.

System: Wild type
Assay: S. aureus survival, RN4220 and DeltatarO strains – OD600, teichoic acid synthesis inhibitors, primary screen (AID 463173)
Conditions: S. aureus RN4220 wild type/DeltatarO growth, OD600, 18 h, active compounds read low, screened at 18.75 µg/mL (by protocol)

| SMILES | survival |
| --- | --- |
| Cc1ccccc1CNC(=O)c1cnc2sc(N3CCC(C)CC3)nn2c1=O | inactive: 76% |
| COc1cc2ccccc2cc1C(=O)Nc1cccc(-c2nc3cc(C)c(C)cc3o2)c1 | inactive: 58% |
| Cc1cc(C)c(NC(=O)C2CCN(c3nc4ccccc4n4cccc34)CC2)c(C)c1 | inactive: 80% |
| CCn1c(SCC(=O)N2CCCCC2)nnc1-c1ccc(S(=O)(=O)N2CCCC2)cc1 | inactive: 105% |
| CN(C(=O)CSc1nnc(NC(=O)Nc2ccccc2)s1)c1ccccc1 | inactive: 93% |
| Brc1cccc(-c2nnn3c2nc(NCc2ccc4c(c2)OCO4)c2ccccc23)c1 | inactive: 138% |
| CC(C)NC(=O)C1CCC(Cn2c(=O)c3sccc3n(Cc3ccc(F)cc3)c2=O)CC1 (stereo unspecified) | inactive: 54% |
| COc1ccc(-n2ncc(C(=O)NCc3ccco3)c2C2CCN(C(=O)OC(C)(C)C)CC2)cc1 | inactive: 59% |
| O=C(NCC(c1cccnc1)N1CCc2ccccc21)c1cccc(Br)c1 (stereo unspecified) | inactive: 65% |
| CC(C)c1cccc(C(C)C)c1NC(=O)c1ccncc1 | inactive: 99% |
| COC(=O)c1c(-c2ccc(Cl)cc2)noc1N1CCN(c2cc(C)ccc2C)CC1 | inactive: 115% |
| COc1cccc(NC(=O)C2CCCN(S(=O)(=O)c3cn(C(C)C)cn3)C2)c1 (stereo unspecified) | inactive: 129% |
| CCOc1ccc(CCNC(=O)c2cc3cccc4c3n2CCS4)cc1 | inactive: 69% |
| CC(C)(C)c1ccc(/C=C/C(=O)Nc2ccc(S(N)(=O)=O)cc2)cc1 | inactive: 92% |
| N#CC1=C(N)C(C#N)(C#N)C(c2ccccc2)C2CCCC=C12 (stereo unspecified) | inactive: 114% |
| CCCNC(=O)Cn1c(=O)n(CC2CCC(C(=O)NC)CC2)c(=O)c2sccc21 (stereo unspecified) | inactive: 68% |
| CCN(CC)S(=O)(=O)c1ccc2c(c1)N(CC(=O)Nc1ccccc1F)C(=O)C1CCCN21 (stereo unspecified) | inactive: 72% |
| Cc1ccc(NC(=O)/C(C#N)=C/c2ccc(-c3ccc(Cl)c(C(=O)O)c3)o2)cc1C | inactive: 64% |
| CCOc1cccc(NC(=O)C2CC(=O)N(CC)C(=Nc3ccc(F)cc3)S2)c1 (stereo unspecified) | inactive: 34% |

| SMILES | survival |
| --- | --- |
| O=C1CS(=O)(=O)C2(C(=O)N(Cc3ccccc3Cl)c3ccccc32)N1c1ccc(F)cc1 (stereo unspecified) | inactive: 85% |
| COc1ccc(Cn2c(C(=O)O)c(CNCCc3ccco3)c3ccc(OC)cc32)cc1 | inactive: 111% |
| COc1ccc(N2CCN(c3ncnc4c3cnn4C)CC2)cc1 | inactive: 70% |
| Cc1cccc(C(=O)Nc2ccc(S(=O)(=O)N3CCC(c4nc5ccccc5s4)CC3)cc2)c1 | inactive: 79% |
| CCCN(C(=O)C(C)C)c1nnc(-c2cc(OC)c(OC)c(OC)c2)s1 | inactive: 120% |
| O=C(COC(=O)c1ccccc1Cl)Nc1nccs1 | inactive: 97% |
| C=Cc1ccc(Cn2c(C(=O)O)c(CNCc3ccc(F)cc3)c3ccc(C)cc32)cc1 | inactive: 68% |
| Cc1cc(C)c(NC(=O)CSc2ncc3c(n2)-c2cc(Cl)ccc2N(C)S3(=O)=O)c(C)c1 | inactive: 124% |
| CCC(C)(C)NC(=O)C1CCN(S(=O)(=O)c2ccc3c(c2)CCCN3C(C)=O)CC1 | inactive: 71% |
| CNC(=S)N(Cc1cc2ccc(OC)cc2[nH]c1=O)C1CCCC1 | inactive: 110% |
| COCCCNC(=O)c1cc2cc(S(=O)(=O)N3CCCCC3)ccc2n1C | inactive: 73% |
| COc1cc(CN2CCc3nc(N4CCN(c5ccccn5)CC4)ncc3C2)cc(OC)c1OC | inactive: 71% |
| CCOc1ccc(S(=O)(=O)n2nc(C)c(S(=O)(=O)N3CCCCC3)c2C)cc1 | inactive: 67% |
| O=C(Nc1ccc(Cl)cc1C(F)(F)F)c1cc(S(=O)(=O)N2CCOCC2)ccc1F | inactive: 136% |
| CC(C)(C)OC(=O)N1CCC(c2c(C(=O)NCc3ccco3)cnn2-c2ccccc2Cl)CC1 | inactive: 67% |
| Cc1nn(CCCC(=O)NCc2ccccc2)c(=O)c2cc3sccc3n12 | inactive: 73% |
| COc1ccc(C(=O)Nc2cc3c(cc2N2CCCC2)n(C)c(=O)c(=O)n3C)cc1OC | inactive: 87% |
| CCCC(=O)n1nc(-c2cccnc2)nc1NCc1ccc(OC)cc1 | inactive: 86% |
| CC(=O)c1cc(-c2ccccc2)n(CCC(=O)NC(C)c2ccccc2)c1C (stereo unspecified) | inactive: 60% |

| SMILES | survival |
| --- | --- |
| COC(=O)c1ccccc1NS(=O)(=O)c1ccc2c(c1)CCCN2C(C)=O | inactive: 65% |
| Cc1cccc(C)c1NC(=O)Cn1c(=O)n(Cc2ccc3c(c2)OCO3)c(=O)c2oc3ccccc3c21 | inactive: 88% |
| O=C(c1ccccc1F)N(Cc1cccs1)c1ccc(O)cc1 | inactive: 97% |
| CCOc1cc(C(=O)Nc2ccc(-c3nc4ccccc4s3)cc2Cl)cc(OCC)c1OCC | inactive: 83% |
| COc1ccccc1NC(=O)Cn1nc(-c2ccc(C)cc2)c2c(c1=O)CCCC2 | inactive: 74% |
| CCOc1ccc(OCC)c(NC(=O)C(NS(=O)(=O)c2cccs2)c2ccccc2)c1 (stereo unspecified) | inactive: 107% |
| COc1ccc(C(=O)Nc2cc(S(=O)(=O)c3ccc(Cl)cc3)c(O)c(C)c2C)cc1 | inactive: 90% |
| Fc1ccc(-n2ncc3c(NCCC4=CCCCC4)ncnc32)cc1 | inactive: 59% |
| Cc1nn(C)c(C)c1N1C(=O)c2cccc3c(Br)ccc(c23)C1=O | inactive: 108% |
| Cc1ccc(CNC(=O)c2c(C)oc3nc(C)nc(N4CCOCC4)c23)cc1 | inactive: 88% |
| CC(C)(C)c1ccc(C(=O)NCC(c2cccs2)S(=O)(=O)c2cccs2)cc1 (stereo unspecified) | inactive: 64% |
| CCc1ccc(-n2nc3cc(C)c(NC(=O)c4cc(OC)cc(OC)c4)cc3n2)cc1 | inactive: 69% |
| Cc1c(N=Cc2cccnc2)c(=O)n(-c2ccccc2)n1C | inactive: 108% |
| Cc1cccc(CSCc2ccc(C(=O)NCCc3ccccc3)o2)c1 | inactive: 68% |
| O=C(c1cc2ccccc2oc1=O)N1CCN(c2ccc(F)cc2)CC1 | inactive: 65% |
| Cc1cc(C)c2c(CC(=O)Nc3ccc(S(=O)(=O)N4CCCCC4)cc3)coc2c1 | inactive: 85% |
| COc1ccc(-c2ccc(CCC(=O)O)[nH]2)cc1 | inactive: 123% |
| COc1ccccc1CCNC(=O)Cc1c(C)c2cc3c(C)coc3cc2oc1=O | inactive: 85% |
